# Measurements published in PubChem BioAssay AID1346428 (National Center for Advancing Translational Sciences (NCATS), 2018).
# The whole screen tested about 48,000 compounds, of which about 1,200 (2.5%) were called active. Not shown: some 2% with an inconclusive outcome.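 Rule for the calls: active = activation of at least 60% and not above a set upper limit (about 1 call in 100 departs from these limits); inconclusive = activation of 40% to 60%, or above that upper limit; inactive = activation under 40%.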 The list shows a part of the results.
# Target: Probable G-protein coupled receptor 32 (Homo sapiens) (UniProt O75388)
# UniProt O75388, sequence (O75388 whole entry, looked up): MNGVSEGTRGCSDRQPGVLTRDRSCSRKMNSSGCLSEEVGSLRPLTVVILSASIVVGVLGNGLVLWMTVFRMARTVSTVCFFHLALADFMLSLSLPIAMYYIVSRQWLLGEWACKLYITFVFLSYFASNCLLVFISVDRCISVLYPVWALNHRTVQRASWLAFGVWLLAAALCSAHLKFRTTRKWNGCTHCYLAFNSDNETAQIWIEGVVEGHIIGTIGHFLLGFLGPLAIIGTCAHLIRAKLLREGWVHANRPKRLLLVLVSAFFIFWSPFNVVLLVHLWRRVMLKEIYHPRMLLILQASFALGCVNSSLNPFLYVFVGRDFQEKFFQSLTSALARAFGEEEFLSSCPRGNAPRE
# Assay: qHTS for Agonists of Human Resolvin D1 Receptor DRV1; note: 0% is about no effect
# Conditions: CHO-K1 GPR32 beta-arrestin PathHunter luminescence, 90 min; at 76.9 µM; stronger effect = higher value; zero percent set by DMSO-only wells
# How it was run: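 Engineered CHO-K1 line co-expressing GPR32-ProLink and EA-beta-arrestin. Compound treatment lasted 90 min at 37 °C. Luminescence was recorded after 1 h with substrate at ambient temperature, relative to DMSO basal wells.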
row,Structure (SMILES),activation
1,CCOC(=O)c1c(Oc2ccc(OC)cc2)nnc(-c2ccccc2)c1-c1ccccc1,inactive: -12.7%
2,Cc1ccc(OCCCn2c(CCNC(=O)C3CCCCC3)nc3ccccc32)c(C)c1,inactive: 11.2%
3,COc1ccccc1NC(=O)Cn1c(=O)n(Cc2ccco2)c(=O)c2cccnc21,inactive: -7.46%
4,Cc1cc(-c2ccc(C)c(S(=O)(=O)N(C)c3ccc(C)c(C)c3)c2)on1,inactive: -11.6%
5,COc1ccc(OC)c(NC(=O)CN2C(=O)c3ccccc3Sc3ccc(C(=O)N4CCCC4)cc32)c1,inactive: -2.04%
6,COc1ccc(N(Cc2cccs2)C(=O)Nc2ccccc2)cc1,inactive: -24.7%
7,COc1ccc(C2=CC(c3ccccc3F)n3ncc(C(=O)Nc4ccc(C)cc4)c3N2)cc1 (centres undefined),inactive: -5.12%
8,CCC(=O)Nc1ccc(S(=O)(=O)NCc2ccc3c(c2)CCN3C(=O)c2ccc(C)cc2)cc1,inactive: -19.8%
9,CCN(CC)C(=O)c1sc(NC(=O)C(C)Sc2nc(-c3ccccc3)cc(C(F)(F)F)n2)c(C(=O)OC)c1C (centres undefined),inactive: -39.8%
10,CCOC(=O)c1c(-c2ccccc2)csc1NC(=O)c1nc(S(=O)(=O)CC)ncc1Cl,inactive: -11.7%
11,COc1ccccc1Cn1ccn(Cc2c(F)cccc2Cl)c(=O)c1=O,inactive: -21.2%
12,COC(=O)c1ccccc1NC(=O)CCC(=O)N1CCOc2ccccc21,inactive: -6.89%
13,CN(C)c1oc(/C=C/c2ccc(F)cc2)nc1C#N,inactive: -12.1%
14,Cc1cccc(-c2c3c(=O)n(C)c(=O)n(C)c3cn2-c2cc(N)c(Cl)cc2Cl)c1,inactive: -21.4%
15,Nc1cc(=O)nc(SCC(=O)Nc2cccc(Cl)c2)n1CCc1ccccc1,inactive: -2.15%
16,CSc1ccc(-c2nc3ncccn3c2Nc2ccc(C)c(C)c2)cc1,inactive: -31.6%
17,CC(=O)c1ccc(NC(=O)Nc2nnc(N3CCCC(C)C3)s2)cc1 (centres undefined),inactive: -1.31%
18,CCN(c1ccccc1)c1nnc(NC(=O)Nc2cccc(Cl)c2C)s1,inactive: 6.27%
19,CC(C)(C)OC(=O)N1CCC(c2c(C(=O)NCc3cccs3)cnn2-c2ccc(F)cc2F)CC1,inactive: -28.9%
20,COc1ccc(Cl)cc1Nc1ncnc2c1c(-c1ccccc1)cn2-c1ccccc1,inactive: -18.4%
21,Cc1c2cnn(CC(=O)NCc3ccc(F)cc3)c(=O)c2c(C)n1Cc1ccccc1F,inactive: -3.31%
22,Cc1nc2c(C(=O)NCCc3ccccc3)cnn2c(C)c1Cc1c(F)cccc1Cl,inactive: -10.2%
23,COCCN1CCc2nc(SCC(=O)Nc3ccc(Br)cc3)[nH]c(=O)c2C1,inactive: 2.65%
24,CCOCCCNC(=O)c1cc2c(-c3ccc(OC)c(OC)c3)nn(C)c2s1,inactive: 21%
25,Cc1noc(/C=C/N(C)C)c1S(=O)(=O)N1CCCC(C(=O)Nc2ccc(F)cc2F)C1 (centres undefined),inactive: -29.1%
26,COc1ccc(NC(=O)Nc2sc3nc4n(c(=O)c3c2C)CCC(C)CC4)cc1OC (centres undefined),inactive: 20.8%
27,Cc1ccc(CNC(=O)CCSCc2ccccc2F)cc1,inactive: 2.71%

row,Structure (SMILES),activation
1,O=C(NCc1cccnc1)c1nn(-c2ccccc2F)nc1CO,inactive: -8.59%
2,CCc1cccc(NC(=O)CCc2c(C)nc3c(c2C)c(=O)n(C)c(=O)n3C)c1,inactive: 11.9%
3,Cc1ccc(N(C(=O)COc2ccccc2C)S(=O)(=O)c2ccc(Cl)cc2)cc1,inactive: -5.34%
4,CC(=O)N(CC(=O)N(C)C)c1ccccc1,inactive: -5.58%
5,Cc1cc(C)c2oc(C(=O)Nc3sc4c(c3C(=O)NCc3ccco3)CCCC4)cc(=O)c2c1,inactive: -10.9%
6,Cc1ccc(NC(=O)c2cccc(N3CCCS3(=O)=O)c2)cc1,inactive: -20.9%
7,CCN(CC)S(=O)(=O)c1cc(-c2nnc(Nc3ccc(OC)c(C(N)=O)c3)c3ccccc23)ccc1C,inactive: -16.3%
8,Cc1ccc(Nc2c(-c3cc(Br)ccc3F)nc3cc(C)ccn23)cc1,inactive: -9.26%
9,COc1ccccc1N1CCN(c2ccc(=O)n(CC(=O)Nc3ccc(F)c(F)c3)n2)CC1,inactive: 0.851%
10,Cc1c(NC(=O)c2ccc(Cl)cc2)cc(C(C)C)c(O)c1S(=O)(=O)c1ccc(Cl)cc1,inactive: -5.69%
11,CCOCCCNC(=O)c1ccc(NC(=O)N2CCCCc3ccccc32)cc1,inactive: -6.11%
12,COc1ccccc1NC(=O)Cn1c(=O)n(-c2ccc(C)cc2)c(=O)c2ccc(C(=O)NCc3ccco3)cc21,inactive: -9.08%
13,CCOc1ccc(NC(=O)N2CCC(CN3CCc4ccccc4C3)CC2)cc1,inactive: -15.7%
14,O=C(NCc1ccc(Cl)cc1)C1CCCN(C(=O)c2cnn(-c3ccc(F)cc3)c2-n2cccc2)C1 (centres undefined),inactive: -9.14%
15,O=C(CCn1c(=O)c2cccn2c2ccc(F)cc21)NCCc1ccccc1,inactive: -25.2%
16,Cc1ccc(C)c(Nc2cc(C(=O)NC3CCCCC3)c3ccccc3n2)c1,inactive: -16.7%
17,CCC(=O)N1CCc2cc(CNC(=O)C(CC)c3ccccc3)ccc21 (centres undefined),inactive: -20.7%
18,CC(C)c1ccc(S(=O)(=O)c2cnc(SCC(=O)Nc3cccc(C(F)(F)F)c3)nc2N)cc1,active: 76.4%
19,CCc1cccc(CC)c1NS(=O)(=O)c1ccc2c(c1)CCN2C(=O)C1CC1,inactive: -8.4%
20,Cc1ccc(CNC(=O)c2nnc(Cc3cccc(F)c3)o2)cc1,inactive: -3.6%
21,CCOC(=O)c1cc(-c2ccc(OC)c(S(=O)(=O)Nc3ccc(OC)cc3OC)c2)on1,inactive: -14.9%
22,COC(=O)c1sccc1S(=O)(=O)N1CCN(c2ccccc2OC)CC1,inactive: -14.7%
23,O=C(Nc1ccc2nc(SCCOc3ccccc3Cl)sc2c1)c1cccs1,inactive: -1.58%
24,COc1ccc(N2CC(C(=O)Nc3ccc(NC(C)=O)cc3)CC2=O)cc1 (centres undefined),inactive: -15.3%
25,CCN1C(=O)c2ccccc2S(=O)c2ccc(C(=O)NCc3ccc(F)cc3)cc21 (centres undefined),inactive: -16.8%
26,COCCCNC(=O)C(=O)NCC(c1ccc2c(c1)OCO2)N1CCOCC1 (centres undefined),inactive: -11.7%
27,Cc1ccc(C)c(S(=O)(=O)c2nnn3c2nc(N2CCOCC2)c2sccc23)c1,inactive: -9.84%
